Assay results taken from the supplement of paper PMC8728848.
The other results are listed elsewhere or left out.

Tests used:
Assay in all cases: glycan array binding signal (z-score within array); higher = stronger binding
Conditions in all cases: glycan notation: IUPAC condensed, linker removed
[1] = target: Neu5Ac(a2-3)Gal(b1-4)GlcNAc(b1-3)GalNAc
In short: (§1)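 Arrays were curated from the Consortium for Functional Glycomics database, 3228 in total, and kept only where the protein sequence was available. Binding is expressed as a within-array Z-score. This score was averaged across arrays of the same protein sequence at different concentrations or buffers and across linkers, and negative values can be read as non-binding.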

[2] = target: Neu5Ac(a2-3)Gal(b1-4)GlcNAc(b1-6)[Gal(b1-3)]GalNAc
In short: as §1

[3] = target: Neu5Ac(a2-3)Gal(b1-4)GlcNAc(b1-6)[Neu5Ac(a2-3)Gal(b1-3)]GalNAc
In short: as §1

[4] = target: Neu5Ac(a2-3)Gal(b1-4)GlcNAc6S
In short: as §1

[5] = target: Neu5Ac(a2-3)Gal(b1-4)[Fuc(a1-3)]GlcNAc
In short: as §1

[6] = target: Neu5Ac(a2-3)Gal(b1-4)[Fuc(a1-3)]GlcNAc(b1-3)Gal
In short: as §1

[7] = target: Neu5Ac(a2-3)Gal(b1-4)[Fuc(a1-3)]GlcNAc(b1-3)Gal(b1-4)GlcNAc
In short: as §1

[8] = target: Neu5Ac(a2-3)Gal(b1-4)[Fuc(a1-3)]GlcNAc(b1-3)Gal(b1-4)[Fuc(a1-3)]GlcNAc(b1-3)Gal(b1-4)[Fuc(a1-3)]GlcNAc
In short: as §1

[9] = target: Neu5Ac(a2-3)Gal(b1-4)[Fuc(a1-3)]GlcNAc(b1-3)GalNAc
In short: as §1

[10] = target: Neu5Ac(a2-3)Gal(b1-4)[Fuc(a1-3)]GlcNAc(b1-6)[Gal(b1-3)]GalNAc
In short: as §1

[11] = target: Neu5Ac(a2-3)Gal(b1-4)[Fuc(a1-3)]GlcNAc(b1-6)[Neu5Ac(a2-3)Gal(b1-3)]GalNAc
In short: as §1

[12] = target: Neu5Ac(a2-3)Gal(b1-4)[Fuc(a1-3)]GlcNAc6S
In short: as §1

[13] = target: Neu5Ac(a2-3)Gal6S(b1-4)GlcNAc
In short: as §1

[14] = target: Neu5Ac(a2-3)Gal6S(b1-4)[Fuc(a1-3)]GlcNAc
In short: as §1

Neu5Ac(a2-3)GalNAc = target: Neu5Ac(a2-3)GalNAc
In short: as §1

[15] = target: Neu5Ac(a2-3)GalNAc(b1-4)GlcNAc
In short: as §1

[16] = target: Neu5Ac(a2-3)[GalNAc(b1-4)]Gal(b1-4)Glc
In short: as §1

[17] = target: Neu5Ac(a2-3)[GalNAc(b1-4)]Gal(b1-4)GlcNAc
In short: as §1

[18] = target: Neu5Ac(a2-3)[Neu5Ac(a2-6)]GalNAc
In short: as §1

Neu5Ac(a2-6)Gal = target: Neu5Ac(a2-6)Gal
In short: as §1

Neu5Ac(a2-6)Gal(b1-4)Glc = target: Neu5Ac(a2-6)Gal(b1-4)Glc
In short: as §1

[19] = target: Neu5Ac(a2-6)Gal(b1-4)GlcNAc
In short: as §1

[20] = target: Neu5Ac(a2-6)Gal(b1-4)GlcNAc(b1-2)Man(a1-3)Man(b1-4)GlcNAc(b1-4)GlcNAc
In short: as §1

[21] = target: Neu5Ac(a2-6)Gal(b1-4)GlcNAc(b1-2)Man(a1-3)[Gal(b1-4)GlcNAc(b1-2)Man(a1-6)]Man(b1-4)GlcNAc(b1-4)GlcNAc
In short: as §1

[22] = target: Neu5Ac(a2-6)Gal(b1-4)GlcNAc(b1-2)Man(a1-3)[GlcNAc(b1-2)Man(a1-6)]Man(b1-4)GlcNAc(b1-4)GlcNAc
In short: as §1

[23] = target: Neu5Ac(a2-6)Gal(b1-4)GlcNAc(b1-2)Man(a1-3)[GlcNAc(b1-2)Man(b1-4)GlcNAc(b1-2)Man(a1-6)]Man(b1-4)GlcNAc(b1-4)GlcNAc
In short: as §1

[24] = target: Neu5Ac(a2-6)Gal(b1-4)GlcNAc(b1-2)Man(a1-3)[Man(a1-6)]Man(b1-4)GlcNAc(b1-4)GlcNAc
In short: as §1

[25] = target: Neu5Ac(a2-6)Gal(b1-4)GlcNAc(b1-2)Man(a1-3)[Neu5Ac(a2-6)Gal(b1-4)GlcNAc(b1-2)Man(a1-6)]Man(b1-4)GlcNAc(b1-4)GlcNAc
In short: as §1

[26] = target: Neu5Ac(a2-6)Gal(b1-4)GlcNAc(b1-2)Man(a1-6)Man(b1-4)GlcNAc(b1-4)GlcNAc
In short: as §1

[27] = target: Neu5Ac(a2-6)Gal(b1-4)GlcNAc(b1-2)Man(a1-6)[Gal(b1-4)GlcNAc(b1-2)Man(a1-3)]Man(b1-4)GlcNAc(b1-4)GlcNAc
In short: as §1

[28] = target: Neu5Ac(a2-6)Gal(b1-4)GlcNAc(b1-2)Man(a1-6)[GlcNAc(b1-2)Man(a1-3)]Man(b1-4)GlcNAc(b1-4)GlcNAc
In short: as §1

[29] = target: Neu5Ac(a2-6)Gal(b1-4)GlcNAc(b1-2)Man(a1-6)[Man(a1-3)]Man(b1-4)GlcNAc(b1-4)GlcNAc
In short: as §1

[30] = target: Neu5Ac(a2-6)Gal(b1-4)GlcNAc(b1-3)Gal(b1-3)GlcNAc
In short: as §1

[31] = target: Neu5Ac(a2-6)Gal(b1-4)GlcNAc(b1-3)Gal(b1-4)GlcNAc
In short: as §1

[32] = target: Neu5Ac(a2-6)Gal(b1-4)GlcNAc(b1-3)Gal(b1-4)GlcNAc(b1-3)Gal(b1-4)GlcNAc
In short: as §1

[33] = target: Neu5Ac(a2-6)Gal(b1-4)GlcNAc(b1-3)Gal(b1-4)[Fuc(a1-3)]GlcNAc(b1-3)Gal(b1-4)[Fuc(a1-3)]GlcNAc
In short: as §1

[34] = target: Neu5Ac(a2-6)Gal(b1-4)GlcNAc(b1-3)GalNAc
In short: as §1

[35] = target: Neu5Ac(a2-6)Gal(b1-4)GlcNAc6S
In short: as §1

B1: Neuropilin-1 (Homo sapiens), O14786 (protein)
chain: FKCMEALGMESGEIHSDQITASSQYSTNWSAERSRLNYPENGWTPGEDSYREWIQVDLGLLRFVTAVGTQGAISKETKKKYYVKTYKIDVSSNGEDWITIKEGNKPVLFQGNTNPTDVVVAVFPKPLITRFVRIKPATWETGISMRFEVYGCKITDYPCSGMLGMVSGLISDSQITSSNQGDRNWMPENIRLVTSRSGWALPPAPHSYINEWLQIDLGEEKIVRGIIIQGGKHRENKVFMRKFKIGYSNNGSDWKMIMDDSKRKAKSFEGNNNYDTPELRTFPALSTRFIRIYPERATHGGLGLRMELLGCEVE
[1]
  glycan array binding signal (z-score): -0.287
[2]
  glycan array binding signal (z-score): -0.245
[3]
  glycan array binding signal (z-score): -0.261
[4]
  glycan array binding signal (z-score): -0.064
[5]
  glycan array binding signal (z-score): -0.255
[6]
  glycan array binding signal (z-score): -0.267
[7]
  glycan array binding signal (z-score): 1.46
[8]
  glycan array binding signal (z-score): 0.049
[9]
  glycan array binding signal (z-score): 2.8
[10]
  glycan array binding signal (z-score): 0.942
[11]
  glycan array binding signal (z-score): 1.69
[12]
  glycan array binding signal (z-score): -0.263
[13]
  glycan array binding signal (z-score): 0.037
[14]
  glycan array binding signal (z-score): -0.303
Neu5Ac(a2-3)GalNAc
  glycan array binding signal (z-score): 0.154
[15]
  glycan array binding signal (z-score): -0.169
[16]
  glycan array binding signal (z-score): -0.201
[17]
  glycan array binding signal (z-score): -0.198
[18]
  glycan array binding signal (z-score): -0.224
Neu5Ac(a2-6)Gal
  glycan array binding signal (z-score): -0.197
Neu5Ac(a2-6)Gal(b1-4)Glc
  glycan array binding signal (z-score): -0.244
[19]
  glycan array binding signal (z-score): -0.254
[20]
  glycan array binding signal (z-score): -0.314
[21]
  glycan array binding signal (z-score): -0.208
[22]
  glycan array binding signal (z-score): -0.282
[23]
  glycan array binding signal (z-score): -0.323
[24]
  glycan array binding signal (z-score): -0.151
[25]
  glycan array binding signal (z-score): -0.224
[26]
  glycan array binding signal (z-score): -0.223
[27]
  glycan array binding signal (z-score): -0.208
[28]
  glycan array binding signal (z-score): -0.278
[29]
  glycan array binding signal (z-score): -0.341
[30]
  glycan array binding signal (z-score): -0.242
[31]
  glycan array binding signal (z-score): -0.295
[32]
  glycan array binding signal (z-score): -0.079
[33]
  glycan array binding signal (z-score): -0.266
[34]
  glycan array binding signal (z-score): 0.061
[35]
  glycan array binding signal (z-score): -0.28
